Data taken from the supplement of paper PMC9446081.
Among all 39,000 compounds or so, about 220 (0.56%) showed activity. Some of the results follow.

system: Escherichia coli K-12 BW25113; experiment: relative growth (OD600 normalised to plate interquartile mean) (fraction); higher = less growth inhibition, active = 0.2 or less; settings: 50 µM; LB; incubation time: overnight (16-24 h)
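Also: static incubation at 37 °C against the wild-type strain, values averaged over two biological replicates.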

Compound	relative growth
COc1oc(C(=O)NC2CCCCC2)c(-c2ccc(Cl)cc2)c1S(=O)(=O)c1cccc(Cl)c1	inactive: 0.914
CO[C@H](CN(C)C(=O)c1ccc2c(c1)OCO2)[C@@H](C)CN([C@H](C)CO)S(=O)(=O)c1ccc(Cl)cc1	inactive: 0.983
C[C@](N)(Cc1ccc(O)c(O)c1)C(=O)O	inactive: 1.02
CO[C@@H]1CN(C)C(=O)c2cc(NC(=O)Nc3c(C)noc3C)ccc2OC[C@@H](C)N(C(=O)Nc2cccc(Cl)c2)C[C@H]1C	inactive: 0.983
Cn1cncc1CN1CCO[C@]2(COCCN(S(C)(=O)=O)C2)C1	inactive: 1.01
C[C@H]1CN([C@@H](C)CO)C(=O)c2cc(NS(=O)(=O)c3ccc(Cl)cc3)ccc2O[C@@H]1CN(C)Cc1ccc(C(=O)Nc2ccccc2N)cc1	inactive: 1.03
CN1C(=O)c2cc(NC(=O)c3ccc(F)cc3)ccc2OC[C@H]2O[C@@H](CC(=O)N3CCOCC3)CC[C@@H]21	inactive: 1.02
COCCOC(=O)N1C(=O)[C@@]2(c3cc(C#CCC(C(=O)OC)C(=O)OC)ccc31)[C@H](C(=O)NC[C@H](O)c1ccccc1)[C@H]1C(=O)O[C@H](c3ccccc3)[C@H](c3ccccc3)N1[C@@H]2c1ccc(OCCO)cc1	inactive: 1.06
Cc1noc(C)c1NC(=O)N(C)C[C@H]1Oc2ccc(NC(=O)c3ccncc3)cc2C(=O)N([C@H](C)CO)C[C@@H]1C	inactive: 1.02
CC1CCN(S(=O)(=O)c2c[nH]cn2)CC1	inactive: 0.975
Cc1ccnc([C@@H](N)C2CC2)c1	inactive: 1
CN1CCN(C(=O)C[C@H]2CC[C@@H]3[C@H](COC[C@H](O)CN3Cc3ccc4c(c3)OCO4)O2)CC1	inactive: 1.01
CO[C@H]1CN(C)C(=O)c2cc(NC(=O)CC(F)(F)F)ccc2OC[C@@H](C)N(C(=O)C2CCOCC2)C[C@H]1C	inactive: 1.01
C[C@H]1CN([C@@H](C)CO)C(=O)Cc2cc(NC(=O)CCN3CCOCC3)ccc2O[C@H]1CN(C)Cc1ccncc1	inactive: 0.97
C[C@H]1CCCCO[C@@H](CN(C)C)[C@@H](C)CN([C@@H](C)CO)C(=O)c2cc(NC(=O)CCCN(C)C)ccc2O1	inactive: 0.973
CCCCCN1C/C=C\CCC(=O)N(C)[C@H](C)[C@@H](c2ccccc2)OC(=O)[C@@H]2[C@@H]3C=C[C@]4(O3)[C@H](C1=O)N(c1ccccc1Cl)C(=O)[C@@H]24	inactive: 0.984
COc1ccc(S(=O)(=O)Nc2cccc3c2O[C@H](CN(C)S(=O)(=O)c2c(C)noc2C)[C@@H](C)CN([C@H](C)CO)C3=O)cc1	inactive: 1.03
CC(C)NC(=O)Nc1ccc2c(c1)CC(=O)N([C@@H](C)CO)C[C@H](C)[C@H](CN(C)S(=O)(=O)c1ccc(Cl)cc1)O2	inactive: 1.01
C[C@H]1CN=C(NS(=O)(=O)c2ccccc2)N1	inactive: 1
O=S(=O)(NCCCN(CCCc1ccccc1)CCCc1ccccc1)c1cccc2cnccc12	inactive: 0.962
C[C@H](CO)N1C[C@H](C)[C@H](CN(C)S(=O)(=O)c2ccc(F)cc2)Oc2c(NS(=O)(=O)c3ccccc3)cccc2C1=O	inactive: 0.99

Compound	relative growth
Cc1noc(C)c1S(=O)(=O)Nc1ccc2c(c1)CC(=O)N([C@@H](C)CO)C[C@@H](C)[C@H](CN(C)S(=O)(=O)c1cccs1)O2	inactive: 1.01
Nc1nc(=S)c2ncn([C@@H]3O[C@H](CO)[C@@H](O)[C@H]3O)c2[nH]1	inactive: 0.933
NCCNC(=O)c1nc(-c2ccc(Br)o2)no1	inactive: 0.892
COc1ccc(NC(=O)Nc2ccc3c(c2)C(=O)N([C@@H](C)CO)C[C@H](C)[C@H](CN(C)Cc2ccc(C(F)(F)F)cc2)O3)cc1	inactive: 0.982
C[C@H](CO)N1C[C@H](C)[C@@H](CN(C)Cc2ccc3c(c2)OCO3)Oc2c(NC(=O)c3ccncc3)cccc2C1=O	inactive: 0.988
Cc1cc(C(=O)Nc2cccc3c2O[C@H](CN(C)C(=O)NC(C)C)[C@@H](C)CN([C@H](C)CO)C3=O)n(C)n1	inactive: 1.01
Cc1ccc(S(=O)(=O)N(C)C[C@@H]2Oc3ncc(Br)cc3C(=O)N([C@@H](C)CO)C[C@@H]2C)cc1	inactive: 0.991
CNC(C)C1CCC(N)C(OC2C(N)CC(N)C(OC3OCC(C)(O)C(NC)C3O)C2O)O1.O=S(=O)(O)O (configuration not stated)	inactive: 0.797
Cc1nc(-c2sc3ccc(Cl)cc3c2C)cs1	inactive: 1
C[C@@H]1CN([C@@H](C)CO)C(=O)c2cc(NC(=O)Cn3cnnn3)ccc2O[C@@H]1CN(C)C(=O)Nc1ccc2c(c1)OCO2	inactive: 0.999
C[C@H](CO)N1C[C@H](C)[C@@H](CN(C)Cc2ccc3c(c2)OCO3)Oc2ccc(NC(=O)CCCN(C)C)cc2C1=O	inactive: 0.991
C[C@H](CO)N1C[C@H](C)[C@H](CN(C)C(=O)Nc2ccc3c(c2)OCO3)Oc2ccc(NC(=O)Nc3ccc(C(F)(F)F)cc3)cc2CC1=O	inactive: 1.05
C[C@@H]1CN([C@@H](C)CO)C(=O)c2cc(NC(=O)C3CC3)ccc2O[C@@H]1CN(C)Cc1ccc(Oc2ccccc2)cc1	inactive: 1.01
O=C(C[C@@H]1CC=CCC[C@@H](Cc2ccc(F)cc2)C(=O)OC[C@@H](Cc2c[nH]c3ccccc23)NC1=O)N[C@@H](CO)Cc1ccccc1	inactive: 1
CC(C)(C)OC(=O)CC[C@@]12N=C(c3ccc(OCCCO)cc3)O[C@@H]1c1ccccc1CN(Cc1ccccc1)C2=O	inactive: 1.02
C[C@H](CO)N1C[C@H](C)[C@H](CN(C)C(=O)Nc2ccc3c(c2)OCO3)OCCCC[C@H](C)Oc2ccc(NC(=O)C3CCCCC3)cc2C1=O	inactive: 1.01
Nc1ncnc2c1ncn2[C@@H]1O[C@H](CO)[C@@H](O)[C@H]1O	inactive: 1.01
C[C@H]1CN([C@@H](C)CO)S(=O)(=O)c2ccc(C#CC3(O)CCCC3)cc2O[C@@H]1CN(C)C(=O)c1ccncc1	inactive: 1
COc1ccc(S(=O)(=O)Nc2ccc3c(c2)C(=O)N([C@@H](C)CO)C[C@H](C)[C@@H](CN(C)Cc2ccc(C(F)(F)F)cc2)OCCCC[C@H](C)O3)cc1	inactive: 0.897
C[C@@H]1CN([C@H](C)CO)C(=O)Cc2cc(NC(=O)Nc3cccc4ccccc34)ccc2O[C@H]1CN(C)C(=O)NC1CCCCC1	inactive: 0.953
COc1ccc2c3c([nH]c2c1)[C@H](CO)N(C[C@]13CCN(CC1)C(=O)Nc1cccc(c1)F)C(=O)c1ccccc1	inactive: 1.03

Compound	relative growth
C[C@@H]1CN([C@H](C)CO)C(=O)c2c(c3ccccc3n2C)-c2ccccc2CO[C@H]1CN(C)Cc1ccc2c(c1)OCCN2C	inactive: 0.961
C[C@H]1CN([C@@H](C)CO)C(=O)c2cc(NS(C)(=O)=O)ccc2O[C@H]1CN(C)C(=O)Nc1ccc(F)cc1	inactive: 1
C[C@H]1CN([C@@H](C)CO)C(=O)CCCn2nncc2CO[C@H]1CN(C)S(=O)(=O)c1ccc2ccccc2c1	inactive: 1.01
C[C@H]1CCCCO[C@@H](CN(C)CC2CCCCC2)[C@@H](C)CN([C@@H](C)CO)C(=O)c2cc(NC(=O)Nc3ccc4c(c3)OCO4)ccc2O1	inactive: 0.966
O=C(C[C@@H]1CC[C@@H]2[C@H](COC[C@H](O)CN2Cc2ccccc2F)O1)N[C@H]1CCN(Cc2ccccc2)C1	inactive: 0.994
C[C@@H]1CN([C@@H](C)CO)C(=O)c2cc(NC(=O)CCCCCC(=O)Nc3ccccc3N)ccc2O[C@@H]1CN(C)CC1CCCCC1	inactive: 0.98
CCCNC(=O)C[C@@H]1CC[C@H]2[C@H](COc3ccc(NC(=O)c4ccc5c(c4)OCO5)cc3C(=O)N2C)O1	inactive: 1.02
C[C@@H]1CCCCO[C@H](CN(C)C(=O)Nc2cccc3ccccc23)[C@@H](C)CN([C@H](C)CO)C(=O)c2cc(NC(=O)c3ccncc3)ccc2O1	inactive: 0.998
O=C(CCC1CCCC1)N1CCCC1	inactive: 1.02
CC(C)NC(=O)Nc1ccc2c(c1)C(=O)N([C@@H](C)CO)C[C@@H](C)[C@@H](CN(C)Cc1ccc(Oc3ccccc3)cc1)O2	inactive: 0.96
C[C@@H]1CCCCO[C@H](CN(C)S(=O)(=O)c2cn(C)cn2)[C@@H](C)CN([C@@H](C)CO)C(=O)c2cc(NC(=O)Nc3cccc4ccccc34)ccc2O1	inactive: 1
C[C@H]1CN([C@@H](C)CO)C(=O)Cc2cc(NS(=O)(=O)c3ccccc3)ccc2O[C@@H]1CN(C)Cc1ccc(Oc2ccccc2)cc1	inactive: 0.968
CC(O)C(=O)[O-].[NH4+] (configuration not stated)	inactive: 1.15
O=C1CCCN1C[C@H]1CCCNC1	inactive: 0.956
NS(=O)(=O)C#Cc1ccccc1	inactive: 0.241
COc1ccc2cc(-c3cc(-c4cc(Cl)cc(Cl)c4)nn3[C@@H](C)c3ccc(C(=O)NCCC(=O)O)cc3)ccc2c1	inactive: 1.06
C[C@H](CO)N1C[C@H](C)[C@H](CN(C)S(=O)(=O)c2ccccc2)Oc2cc(C#Cc3ccncc3)ccc2S1(=O)=O	inactive: 1.03
CCCCC(=O)OCC(=O)[C@]1(O)Cc2c(O)c3c(c(O)c2[C@@H](O[C@H]2C[C@H](NC(=O)C(F)(F)F)[C@H](O)[C@H](C)O2)C1)C(=O)c1c(OC)cccc1C3=O	inactive: 1.01
Cc1noc(C)c1S(=O)(=O)Nc1ccc2c(c1)CC(=O)N([C@@H](C)CO)C[C@@H](C)[C@H](CN(C)S(=O)(=O)c1ccc(F)cc1)O2	inactive: 0.997
C[C@@H]1CN([C@@H](C)CO)C(=O)Cc2cc(NC(=O)C3CC3)ccc2O[C@H]1CN(C)S(=O)(=O)c1ccc(F)cc1	inactive: 0.975
